Data on 83 variants can be found in the RNAGym collection of RNA variant scans (doi:10.1073/pnas.2313332121).

This sample is rich in variants without activity.

B1: TPR 5TU (parent)
chain: GGAUCUUCUCGAUCUAACAAAAAAGACAAAUCUGCCACAAAGCUUGAGAGCAUCUUCGGAUGCAGAGGCGGCAGCCUUCGGUGGCGCGAUAGCGCCAACGUUCUCAACUAUGACACGCAAAACGCGUGCUCCGUUGAAUGGAGUUUAUCAUG

In the data set the parent is B1. Description: polymerase ribozyme fitness, log enrichment relative to wild type (log ratio); higher = more active; in vitro selection for triplet polymerase activity. In short, it runs like this:
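Each subunit of a heterodimeric triplet polymerase ribozyme was mutagenized into a library by PCR, transcribed, and subjected to one round of in vitro selection, run in triplicate. Libraries were annealed with a biotinylated primer, the partner subunit and triplets, incubated frozen at −7 °C, and extended constructs were gel-excised, captured on streptavidin beads and recovered by RT-PCR. Input and output libraries were sequenced on Illumina, keeping genotypes with ≥10 input reads and ≥1 read per output. Fitness is log base 2 of genotype enrichment divided by wild-type enrichment, from inverse-variance-weighted replicate averages.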
A66C C123U: the “polymerase ribozyme fitness (log ratio)” value is at most -4.2. To A64C A73G G81A C87G A106G G117U belongs at most -4.2. With C72A A97U C99A, the “polymerase ribozyme fitness (log ratio)” value was at most -4.2. The figure for A66G C116U is at most -4.2. G71U G81C A89C: the “polymerase ribozyme fitness (log ratio)” value was at most -4.2.

As to C72A G140U, the “polymerase ribozyme fitness (log ratio)” value is at most -4.2. The figure for U61G G67C U77C C85A C93A G136A A138U G141U is at most -4.2.

As for A66G U78G C114U U146G, the “polymerase ribozyme fitness (log ratio)” value was at most -4.2.

Turning to G71U C72A A91G C116A A138U, the “polymerase ribozyme fitness (log ratio)” value is at most -4.2. To G71U A89U U135A belongs at most -4.2; to A66U G68A C72G G92U, at most -4.2.

For G65A C87G U151C, the “polymerase ribozyme fitness (log ratio)” value is at most -4.2.

As for A66C C76U C99U A107U U111A, the “polymerase ribozyme fitness (log ratio)” value is at most -4.2.

Take C63U G68A C87G: the “polymerase ribozyme fitness (log ratio)” value is at most -4.2. For G68U C116G U144A U146A U148G, the “polymerase ribozyme fitness (log ratio)” value was at most -4.2. As to U61C U104G G126C, the “polymerase ribozyme fitness (log ratio)” value is -2.04. To U61G A66C G133C belongs at most -4.2; to C72A U78G C85U A97U G140C, at most -4.2. The figure for G65C G86U U139A is at most -4.2. Regarding C69G G133U, the “polymerase ribozyme fitness (log ratio)” value was at most -4.2. The figure for A64G G65U A66U C99G A110C G136C G152U is at most -4.2; for G65C G84A A89C G141C it is at most -4.2. To C63A G117U A119C belongs 0.257. On to G62C A64C, for which the “polymerase ribozyme fitness (log ratio)” value is at most -4.2.

On to C63A, for which the “polymerase ribozyme fitness (log ratio)” value is 0.15. As for C63U, the “polymerase ribozyme fitness (log ratio)” value is -0.0732.

For C63A U78G C93U C103U C105U A106C C118U, the “polymerase ribozyme fitness (log ratio)” value is at most -4.2. To G70A U101C C103G C123U belongs at most -4.2.

C69A G94C: the “polymerase ribozyme fitness (log ratio)” value is -0.673.

A66C C96U: the “polymerase ribozyme fitness (log ratio)” value was at most -4.2. The figure for C69U is -1.03; for C69A it is -1.57. To C69G belongs -1.51. To G70C C132G belongs at most -4.2; to C72A U148A, at most -4.2. Take G65A C75A G81U G94A C105U G140U: the “polymerase ribozyme fitness (log ratio)” value was -3.7.

In the case of C72G U77G G84A C114G, the “polymerase ribozyme fitness (log ratio)” value is at most -4.2. Regarding C69A U139C G140A U148A, the “polymerase ribozyme fitness (log ratio)” value was at most -4.2.

G67U C85U G86A C103G U109G C118G: the “polymerase ribozyme fitness (log ratio)” value is at most -4.2. The figure for A66C G71A G94A A97U C116A U144A is at most -4.2. To A66G G71U C76A C87U C96U A138C U144G belongs at most -4.2; to C63G A91G U102G U144A, at most -4.2.

For the variant G68A C75A C76U G88A G143U A150C, the “polymerase ribozyme fitness (log ratio)” value is at most -4.2. Turning to G68U C103U G141C, the “polymerase ribozyme fitness (log ratio)” value is at most -4.2. For G68C C103U, the “polymerase ribozyme fitness (log ratio)” value was at most -4.2. The figure for G70C G80A U90C G133C is at most -4.2; for G65U G94A it is at most -4.2.

Take A64C C76A G81A A113G: the “polymerase ribozyme fitness (log ratio)” value is at most -4.2.

Consider C69G C76G C96A A138G, for which the “polymerase ribozyme fitness (log ratio)” value was at most -4.2.

For the variant A66G G81U C87G C99U U104G U134A A142U, the “polymerase ribozyme fitness (log ratio)” value was at most -4.2. Turning to U61G C75U U144C, the “polymerase ribozyme fitness (log ratio)” value is -1.52.

With C69U C79U A106C C114U A119C, the “polymerase ribozyme fitness (log ratio)” value was at most -4.2. The figure for G62A G74C U135G is at most -4.2; for C69G G71A U78A U82A U151C it is at most -4.2; for U61G A107U C132A U148C it is at most -4.2. For G67C G71C G86A A107U A121U U144G, the “polymerase ribozyme fitness (log ratio)” value is at most -4.2. The figure for G67A G70C A89U U90G A97C C125U is at most -4.2. Turning to G71C G92A, the “polymerase ribozyme fitness (log ratio)” value is at most -4.2. To G70A G84U C116A belongs -4.13. To A64C G81C C116A belongs at most -4.2.

As for A64G A150U, the “polymerase ribozyme fitness (log ratio)” value is -3.42.

C63G G68C: the “polymerase ribozyme fitness (log ratio)” value is at most -4.2. The figure for G67U C76G G143A A150G is at most -4.2; for G70U A119C it is -2.09. Take G67A U139C G140A: the “polymerase ribozyme fitness (log ratio)” value was at most -4.2. In the case of G67A U78C C96U G133U, the “polymerase ribozyme fitness (log ratio)” value is at most -4.2. In the case of C69A G84A C96G U111A, the “polymerase ribozyme fitness (log ratio)” value was at most -4.2. The figure for C69U C76G is at most -4.2; for C69G G71C C79A C87G A138U U144C it is at most -4.2; for G67A G94C C95U it is at most -4.2. To G68A G88U C93A C116G C118A U148G belongs at most -4.2. For the variant G68C U104G C105G C118U G133C, the “polymerase ribozyme fitness (log ratio)” value is at most -4.2. The figure for G65A C85U A97U is -2.46; for G68U C76G U78G U82G G94U U144C it is at most -4.2; for C72G U109G it is at most -4.2. The figure for G62C A137U G143U U148G is at most -4.2; for C69G A91U it is at most -4.2; for G68C C79A C96U C103U C118G it is at most -4.2. A66U U77C C85U: the “polymerase ribozyme fitness (log ratio)” value was at most -4.2. For A66U U90A G124A, the “polymerase ribozyme fitness (log ratio)” value is at most -4.2. On to A66G C96A A98G G136U, for which the “polymerase ribozyme fitness (log ratio)” value is at most -4.2. To U61G A122C belongs -1.51; to G68U C69A A113G G117A, at most -4.2.
